Laboratory results: PubChem BioAssay AID488969 (Vanderbilt High Throughput Screening Facility, 2010)
Over roughly 110,000 compounds, “z-score” has its median near -0.1; the highest 2% begin near 2. The list shows a part of the results. Active and inactive are the calls of the source.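 How the source made its calls: active means z-score in the third read window above 3 or below -3; inactive means the rest.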

molecular target: Metabotropic glutamate receptor 8 (Rattus norvegicus) (UniProt P70579); experiment: rat mGluR8 modulators via GIRK flux, primary screen, cell-based, thallium flux, HTS (AID 488969); details: HEK293 rat mGluR8, GIRK (G protein-gated inwardly rectifying potassium channel) thallium flux, FluoZin2; at 10 µM; stronger effect = higher value; submaximal glutamate (EC20) added with thallium
UniProt P70579, sequence (P70579 whole entry, looked up): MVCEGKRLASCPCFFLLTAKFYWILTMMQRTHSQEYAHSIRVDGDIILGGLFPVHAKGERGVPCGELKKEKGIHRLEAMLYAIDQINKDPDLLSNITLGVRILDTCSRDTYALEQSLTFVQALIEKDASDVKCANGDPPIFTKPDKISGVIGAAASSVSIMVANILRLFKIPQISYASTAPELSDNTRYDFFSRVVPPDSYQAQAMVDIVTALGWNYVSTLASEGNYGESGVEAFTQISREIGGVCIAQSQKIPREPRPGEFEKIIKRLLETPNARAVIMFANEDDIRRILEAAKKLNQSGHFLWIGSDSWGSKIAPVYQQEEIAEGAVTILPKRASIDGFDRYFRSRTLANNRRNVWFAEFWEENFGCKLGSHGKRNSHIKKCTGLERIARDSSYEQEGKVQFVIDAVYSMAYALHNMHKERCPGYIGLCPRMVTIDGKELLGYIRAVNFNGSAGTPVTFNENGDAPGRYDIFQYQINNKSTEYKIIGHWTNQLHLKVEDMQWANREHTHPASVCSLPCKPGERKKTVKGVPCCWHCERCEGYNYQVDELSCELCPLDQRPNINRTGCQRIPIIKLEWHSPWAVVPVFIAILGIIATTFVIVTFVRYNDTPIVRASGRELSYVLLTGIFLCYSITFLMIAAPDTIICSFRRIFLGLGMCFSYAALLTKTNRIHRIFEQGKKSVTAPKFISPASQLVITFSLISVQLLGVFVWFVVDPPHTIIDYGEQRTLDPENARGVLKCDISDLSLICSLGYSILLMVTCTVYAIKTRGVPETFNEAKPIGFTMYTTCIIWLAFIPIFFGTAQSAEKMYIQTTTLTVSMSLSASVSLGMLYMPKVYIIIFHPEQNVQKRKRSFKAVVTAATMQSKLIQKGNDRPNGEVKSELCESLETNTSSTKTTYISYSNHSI

Row | Structure (SMILES) | z-score
1 | O=C(Cn1c(=O)c2sccc2n(Cc2ccc([N+](=O)[O-])cc2)c1=O)NCCc1ccccc1 | 0.132
2 | COc1ccc(/C=N/NC(=O)CSCC(=O)Nc2ccccc2)cc1OC | -0.141
3 | COc1ccccc1C(=O)N1CCN(C(=O)c2ccncc2)CC1 | 0.136
4 | N#C/C(=C1/CCCN1)c1ccccn1 | -0.173
5 | O=C(c1ccc(Cn2cc(Br)cn2)o1)N1N=C(C(F)F)CC1(O)C(F)F (stereo not given) | 0.214
6 | CN(Cc1ccccc1)c1nc2c(c(=O)[nH]c(=O)n2C)n1CCOc1ccccc1 | -0.489
7 | O=C(/C=C/c1c(F)cccc1Cl)c1ccc(F)cc1 | 0.00886
8 | COc1cc(OC)cc(-c2nnc(SCC(=O)N(C(C)C)C(C)C)o2)c1 | -0.176
9 | COc1ccccc1NC(=O)C1CCCCC1 | 0.254
10 | O=C(CCCCCn1c(=S)[nH]c2cc3c(cc2c1=O)OCO3)N1CCN(C2CCCCC2)CC1 | -1.45
11 | COc1ccc(OC)c(NC(=O)C2C3CC4OC(=O)C2C4C3)c1 (stereo not given) | -0.324
12 | O=C1c2ccccc2C(=O)N1CCSC(=S)N1CCOCC1 | -0.252
13 | Cc1cc(CN2C(=O)c3ccccc3C2=O)on1 | -0.146
14 | Cc1ccc(CCNS(=O)(=O)c2ccc(C)cc2)cc1 | -0.791
15 | O=C(CNC(=O)c1ccc2ccccc2c1)OCC(=O)N1CCN(S(=O)(=O)c2ccc3ccccc3c2)CC1 | -0.263
16 | CS(=O)(=O)N1CCN(C/C=C/c2ccccc2)CC1 | -0.0638
17 | CCCC(=O)Nc1nnc(CCOC)s1 | -0.191
18 | COc1ccc(OC)c2[nH]c(=O)c(CCNC(=O)c3ccc(S(=O)(=O)N(C)C)cc3)cc12 | 0.354
19 | N#C/C(=C/c1ccc(-c2ccc(S(N)(=O)=O)cc2)o1)C(=O)Nc1ccccc1 | -0.292
20 | CC(NC(=O)c1ccccc1NC(=O)c1ccco1)C(=O)O (stereo not given) | 0.586
21 | CCC1CSC(Nc2ccc(C(=O)/C=C/c3ccc(Oc4ccccc4)cc3)cc2)=N1 (stereo not given) | 0.0568
22 | CCCCCc1nc2sc3c(c2c(=O)n1N)CCC3 | -0.252

Row | Structure (SMILES) | z-score
23 | O=C1c2ccccc2C(=O)N1CCCCN(C(=O)c1cc([N+](=O)[O-])cc([N+](=O)[O-])c1)c1ccc(Cl)cc1 | 0.128
24 | FC(F)(F)c1cc(Oc2ccccc2Cl)nc(-c2ccccn2)n1 | -0.561
25 | COc1ccc(S(=O)(=O)N(Cc2nc3ccccc3c(=O)[nH]2)C2CCCC2)cc1 | 2.49
26 | CCOC(=O)c1ccccc1NC(=O)c1c(F)c(F)c(F)c(F)c1F | 0.361
27 | COc1ccc(OC)c(-c2csc(NC(=O)CSc3ccc(Br)cc3)n2)c1 | -0.0826
28 | O=C(CSc1nnnn1-c1ccc(F)cc1)NC1CCCCC1 | -0.158
29 | Nc1ccc(Cl)c(-c2nc3ncccc3o2)c1 | 0.714
30 | O=C(COC(=O)c1ccc(Cl)c(Cl)c1)Nc1cccnc1Cl | -0.19
31 | Cc1ccc(C(=O)NC(=C(Cl)Cl)S(=O)(=O)c2ccc(C)cc2)cc1 | -0.083
32 | CCCC(=O)Nc1cc2c(cc1C(=O)c1ccccc1)OCCO2 | 0.117
33 | c1ccc(COc2cccc(CN3CCN(c4ccccn4)CC3)c2)cc1 | -0.187
34 | Cc1ccc2nc(C)cc(Nc3ccc4c(c3)OCCO4)c2c1 | 1.52
35 | O=C(COC(=O)CCSc1ccc(Cl)cc1)NCCc1ccccc1 | 0.00426
36 | Cc1[nH]c(=O)[nH]c(=O)c1/C=C/C(=O)OCC(C)C | 0.104
37 | O=C(O)CC(C(=O)OCC1CCCO1)N1CCOCC1 (stereo not given) | 1.13
38 | Cn1c(SCC(=O)N2c3ccccc3Sc3ccccc32)nc2ccccc21 | -0.00612
39 | CC12CNCC(C)(CN(C(c3ccccc3)c3ccccc3)C1)C2 | 1.25
40 | CNC(=O)/C(=C\c1ccc([N+](=O)[O-])cc1)NC(C)=O | 0.421
41 | Cc1[nH]c2ccccc2c1N=Nc1cccc(C(=O)O)c1 | 0.00376
42 | Cc1nc(N2CCN(S(=O)(=O)c3ccccc3)CC2)c2c3c(sc2n1)CC(C)CC3 (stereo not given) | -0.0532
43 | CC1(C)CC(CC(=O)O)(c2ccccc2)CCO1 (stereo not given) | 0.215
44 | NC(=O)N1CCCC1C(=O)Nc1ccc(Cl)c(Cl)c1 (stereo not given) | 0.0276

Row | Structure (SMILES) | z-score
45 | O=S(=O)(c1ccc2ccccc2c1)N1CCN(S(=O)(=O)N2CCCCC2)CC1 | 0.336
46 | CCOc1ccccc1NC(=O)c1ccc(NC(=O)c2ccco2)cc1 | 0.535
47 | Cc1ccc(/C=N/NC(=O)CSc2nc3ccccc3c(=O)n2-c2ccccc2C)s1 | -0.0572
48 | O=C(CN1CCN(C(=O)c2cccs2)CC1)Nc1ccc(Br)cc1 | -1.01
49 | CCc1ccc2c(c1)/C(=N/N(C)C(=S)NC)C(=O)N2 | -0.0814
50 | Cc1ccc(SCc2cc(=O)[nH]c(N3CCN(Cc4ccccc4)CC3)n2)cc1 | 0.288
51 | COc1cc(/C=N/N(C)c2ccccc2)cc(Cl)c1O | -0.687
52 | O=C(CN1CCN(c2ccccc2)CC1)Nc1nccs1 | 0.793
53 | Cc1c(Cl)cccc1NC(=O)Nc1ccc(C(=O)N2CCCC2)cc1 | -0.14
54 | CCn1nnnc1SCC(=O)N1CCCc2ccccc21 | -0.233
55 | CC(Oc1ccccc1F)C(=O)/C=C/N(C)C (stereo not given) | 0.324
56 | O=C(CSc1ccsc1[N+](=O)[O-])N1CCN(c2ccc(Cl)cc2)CC1 | -0.448
57 | Cc1onc(-c2ccccc2)c1C(=O)Nc1nnc(COc2ccc(Cl)cc2)s1 | 0.756
58 | CCOC(=O)c1ccc(NC(=O)CN2C(=O)C(=O)N(CC(C)C)C2=O)cc1 | -0.346
59 | CCOC(=O)c1c(N2C(=O)Nc3ccccc3N2O)sc2c1CCCC2 | -0.5
60 | Cc1ccc(S(=O)(=O)NCCC(=O)NC2CCCC2)cc1 | 0.757
61 | CCNc1ccc(C(=O)OCC)cc1NC(=O)c1cc(S(=O)(=O)N2CCOCC2)ccc1C | -0.288
62 | O=C(O)CC1S/C(=N\N=C/c2ccccc2)N(c2ccc(O)cc2)C1=O (stereo not given) | -0.0484
63 | CC(=O)c1c(C)nc2nonc2c1N | 0.36
64 | CCOC(=O)c1ccc(-c2n[nH]c(=O)c3ccccc23)cc1 | -0.666
65 | Cc1cccc(NC(=O)CC23CC4CC(C2)CC(n2nnc(C)n2)(C4)C3)c1 | -0.706
66 | COc1ccc(C)cc1-n1nnnc1SCc1nc2ccccc2s1 | 0.233

Row | Structure (SMILES) | z-score
67 | CC1=NN(c2cccc(Cl)c2)C(=O)C12CC(C)=C(C)CS2 (stereo not given) | 0.772
68 | O=C(NCCc1c[nH]c2ccccc12)c1ccc(S(=O)(=O)NCc2ccco2)cc1 | -0.369
69 | COc1cc2[nH]c(=O)n(C3CCCCC3)c(=O)c2cc1OC | -0.246
70 | CCOC(=O)c1c(NC(=O)CSc2nnc3c(n2)[nH]c2ccc(F)cc23)sc(C(C)=O)c1C | -0.0188
71 | COc1ccc(OC)c(C(=O)CC2OC(=O)c3ccccc32)c1 (stereo not given) | -0.0969
72 | COc1ccc(/C=N/NC(=O)c2cccc([N+](=O)[O-])c2)cc1OC(=O)c1ccccc1 | -0.358
73 | COc1cc2c(cc1OC)-c1nnc(-c3cccs3)n1C1(CCCC1)C2 | -0.197
74 | Cc1nn(C)c(Oc2ccc(Cl)cc2)c1C=O | -0.135
75 | CCN(CCNC(=O)C1CCN(Cc2nc(-c3ccc(Cl)cc3)oc2C)CC1)c1ccccc1 | 1.3
76 | O=C(c1ccccc1-c1nc2ccccc2[nH]1)N1CCCCC1 | 0.101
77 | COc1ccc(/C=N\N=C2/SC(CC(=O)O)C(=O)N2c2ccc(O)cc2)cc1 (stereo not given) | -0.0572
78 | Cc1ccc(S(=O)(=O)Oc2ccc(C3C4=C(CCCC4=O)N(CCC(=O)O)C4=C3C(=O)CCC4)cc2Cl)cc1 | -0.196
79 | CC(C)(C)c1nn2cnnc2n(/N=C/c2cccc3ccccc23)c1=O | -0.305
80 | Cc1nn(C)c(Cl)c1NC(=O)OCc1ccc(Cl)cc1Cl | -0.256
81 | Cc1c(/C=N/NC(=O)C(C)(C)Oc2ccc(Cl)cc2)cnn1C | -0.204
82 | CS(=O)(=O)N1CCc2cc(S(=O)(=O)Nc3ccc4c(c3)OCCO4)ccc21 | 0.322
83 | CC(CCc1ccco1)NC(=O)CSc1cc(=O)n(C)c2ccccc12 (stereo not given) | -0.0108
84 | COc1cc(S(=O)(=O)NC2CCCC2)ccc1F | -0.484
85 | CC(C)c1nc(SCC(=O)Nc2cccc(S(N)(=O)=O)c2)n[nH]1 | -0.115
86 | CC(C)NC(=O)CCCOc1ccc(Cl)cc1Cl | -0.491
87 | Cn1cnc2c1c(=O)n(Cc1c(Cl)cccc1Cl)c(=O)n2C | -0.318
88 | COC(=O)CCCCCCCCC(=O)Nc1nc2ccccc2s1 | -0.16

Row | Structure (SMILES) | z-score
89 | O=C(CSc1nnc(-c2cccs2)n1-c1ccccc1)NCC1CCCO1 (stereo not given) | -0.616
90 | CCOc1ccc(-c2nnc(-c3cccnc3)o2)cc1OCC | 0.0661
91 | CCC(=O)OCc1c(C(F)(F)F)nn(C)c1Sc1ccc(F)cc1 | 0.0175
92 | O=C(CSC1=NCCS1)Nc1nc(-c2ccccc2)cs1 | -0.364
93 | Cc1cccc(C)c1NC(=S)N1CCC(N(C)CC2CCCO2)CC1 (stereo not given) | 0.0109
94 | CC1(C)CC(=O)C2=C(C1)OC(N)=C(C#N)C2c1cc2c(cc1[N+](=O)[O-])OCO2 (stereo not given) | -1.6
95 | O=C(NCc1ccccc1)N1CCn2c(nc3ccccc32)C1 | -0.567
96 | CC(C)(C)CC(=O)NCCCCCCNC(=O)CC(C)(C)C | -0.91
97 | Cc1ccc(C)c(CSc2nnc(-c3ccccn3)n2N)c1 | -0.204
98 | NC(=O)CNC(=O)C1CCCc2c1[nH]c1ccc(Cl)cc21 (stereo not given) | 0.332
99 | CCSc1nnc(NC(=O)CSc2nnc(Cc3cccn3C)n2CCc2ccccc2)s1 | 1.24
100 | CCSc1nnc(NC(=O)c2ccc3ccccc3n2)s1 | active: 11.8
101 | CN(C(=S)Nc1ccc(SC(F)F)cc1)c1ccc(O)cc1 | 0.142
102 | Cc1noc(C)c1COC(=O)c1cc(C)n(-c2ccccc2)c1C | 1.52
103 | CC1Cc2ccccc2N1C(=O)CN1C(=O)CN(C)C(=O)c2ccccc21 (stereo not given) | -0.498
104 | O=C(CN1C(=O)c2ccccc2S1(=O)=O)N1CCN(c2ccc(F)cc2)CC1 | -0.085
105 | CC1(C)CC(=O)C2=C(C1)NC(=O)CC2C(=O)NCc1ccc(F)cc1 (stereo not given) | -0.155
106 | COc1ccc(CCNC(=O)CCC(=O)N2CCN(S(=O)(=O)c3ccc(Cl)cc3)CC2)cc1OC | -0.0943
107 | CC(C)C(=O)Nc1nnc(CCc2nnc(NC(=O)C(C)C)s2)s1 | 0.549
108 | Cc1cc(-c2ccccc2)n(-c2cc(N/N=C/c3ccccc3O)ncn2)n1 | -0.217
109 | Cc1ccc(C(C)NC(=O)c2c(C)noc2C)cc1C (stereo not given) | 0.297
110 | Cc1c(NC(=O)Oc2ccccc2)sc(=S)n1C | -2.17
